# Results: PubChem BioAssay AID743279 (National Center for Advancing Translational Sciences (NCATS), 2014)
# Out of some 360,000 compounds screened, about 17,000 (4.7%) were called active. The shares of active, inactive and inconclusive entries below differ from those in the screen. Rule as the data show it: active = activity change below about -50%; inconclusive = mostly about -30% to -49%; inactive = weaker than that.
# Test: qHTS for Inhibitors of Inflammasome Signaling: IL-1-beta AlphaLISA Primary Screen
# Details: THP-1 LPS/ATP IL-1B secretion, 16 h; at 57.5 µM, stronger effect = lower value
# Summary of the method: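 THP-1 cells pretreated 1 hr with compounds (up to 57.5 uM final), then stimulated with LPS (250 ng/mL final) plus ATP (1.25 mM final); secreted IL-1B measured by AlphaLISA after 16 hr, decreased signal indicating inhibition.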
# % is scaled to controls: 0 for no effect and ±100 for the full control effect.
row,Compound,activity change
1,N#Cc1cc(-c2ccccc2)nc(Oc2ccccc2)n1,inconclusive: -32.5%
2,COCCCNC(=O)c1c(N)n(/N=C/c2ccccn2)c2nc3ccccc3nc12,inconclusive: -30.2%
3,O=C(c1ccc(Cl)cc1)N1CCN(S(=O)(=O)/C=C/c2ccccc2)CC1,inconclusive: -38.4%
4,O=C(c1ccc(Cl)c([N+](=O)[O-])c1)N(Cc1ccc(Cl)cc1)C1CCS(=O)(=O)C1 (stereo not given),active: -88.1%
5,O=C(COc1ccc([N+](=O)[O-])cc1)N/N=C/c1cc([N+](=O)[O-])ccc1N1CCOCC1,inconclusive: -38.7%
6,Cc1ccccc1N(C)C(=O)C1CCCN(c2ncnc3c2nc2n3CCCCC2)C1 (stereo not given),inactive: 31.4%
7,COc1ccc(NS(=O)(=O)c2cc(-c3cnc(C4CC4)o3)ccc2C)cc1,inactive: -1.22%
8,O=C(CCc1ccccc1)Nc1ccccc1C(F)(F)F,inactive: -14%
9,Oc1[nH]c2ccccc2c1N=Nc1cccc(Cl)c1,inactive: 30.3%
10,Cc1ccc(NC(=O)c2nc[nH]c2C(=O)N[C@@H](CCCCNC(=O)OC(C)(C)C)C(=O)OC(C)(C)C)cc1,inconclusive: -48.9%
11,C[C@H](CO)N1C[C@H](C)[C@H](CN(C)S(=O)(=O)c2ccccc2)OCc2cnnn2CCCC1=O,inactive: 1.35%
12,COc1ccc(C(=O)NCCc2ccccn2)cc1S(=O)(=O)Nc1ccc(Br)cc1,inactive: -6.19%
13,CN1CCN(c2ccc(S(=O)(=O)N3CCOCC3)cc2NC(=O)CSCc2ccccc2)CC1,inconclusive: -41.3%
14,CCN(CC)C1=N/C(=C\c2ccc(OC)cc2)C(=O)N1c1ccccc1,inconclusive: -35%
15,Fc1ccc(CNc2ccc(N3CCN(Cc4ccccc4)CC3)cc2)cc1,inconclusive: -44.5%
16,CN(C)CCCNc1nc(N)c([N+](=O)[O-])c(NC2CCCCC2)n1,inconclusive: -31.3%
17,Cc1ccc(NC(=O)C2=C(O)CCn3c2nc2ccccc23)cc1,inconclusive: -30.2%
18,Clc1ccc(C(c2cccs2)N2CCNCC2)cc1 (stereo not given),active: -50.2%
19,CC(=O)C1=C(O)CC(c2ccccc2)CC1=NCCc1ccccc1 (stereo not given),inconclusive: -43.8%
20,COc1ccccc1/C=C/C=c1\sc2nc(=O)c(Cc3ccccc3)nn2c1=O,inactive: -0.498%
21,Cc1ccccc1C(C)(O)c1cnc(C)n1Cc1ccccc1 (stereo not given),inactive: -3.58%
22,CCCCCCN1C[C@@H](n2cc(C3CC3)nn2)[C@H](O)C[C@@H]1c1ccc(OC)cc1,inconclusive: -32.8%

row,Compound,activity change
1,CCn1c(SCC(=O)Nc2ccc(OC)cc2OC)nc2nc3c(cc2c1=O)COC(C)(C)C3,inconclusive: -42.2%
2,O=C(Nc1ccccc1)C1=C[C@@H](c2ccc(C(F)(F)F)cc2)C[C@@H](OCCCCO)O1,inconclusive: -48.5%
3,Cn1c(=O)c2c(nc(SCCN3CCOCC3)n2Cc2ccccc2Cl)n(C)c1=O,inconclusive: -36.1%
4,COc1ccc(/C=N/NC(=O)CCSc2nc3ccccc3s2)cc1,inconclusive: -32.8%
5,Cc1ccc(C(=O)ONC(=O)c2ccc(Cl)cc2)cc1[N+](=O)[O-],inconclusive: -40.4%
6,O=C(NCCCN1CCCC1)c1ccc2c(c1)N(Cc1ccccc1F)C(=O)c1ccccc1S2(=O)=O,inconclusive: -38.6%
7,COc1ccc2c(c1)[C@H]1[C@H](CO2)[C@H](c2ccccc2)[C@]2(C)C(=O)N(CC3CCCO3)CC(=O)N12 (stereo not given in full),inactive: -0.819%
8,O=C(NCc1nnc(SCc2ccc(F)cc2)n1-c1ccc(F)cc1)C12CC3CC(CC(C3)C1)C2,inconclusive: -45%
9,C#Cc1ccc(NC(=O)C2(C)CCN2C(=O)C2(c3ccccc3)CCCC2)cc1 (stereo not given),inconclusive: -38.3%
10,Cc1ccc(S(=O)(=O)Nc2ccc3ccccc3c2)cc1,inconclusive: -48.1%
11,CCc1ccccc1NC(=O)c1noc(C(C)C)c1[N+](=O)[O-],inconclusive: -39.5%
12,O=C(Nc1cccc(Cl)c1)c1ccc2c(c1)SC1=NS(=O)(=O)CCN12,active: -67.3%
13,O=C(C[n+]1ccccc1)Nc1ccc(Oc2ccccc2)cc1,inconclusive: -34.2%
14,O=C(Cc1cccs1)N1CCN(c2nc(-c3ccc(Cl)cc3)cs2)CC1,active: -62.4%
15,CCOc1cc(/C=N/NC(=O)N/N=C/c2ccc(O)c(OCC)c2)ccc1O,inconclusive: -49.9%
16,CCCNC(=O)c1ccccc1NC(=O)c1cccc(-n2cnnn2)c1,inconclusive: -41.4%
17,O=C(N/N=C/C(Br)=C/c1ccccc1)c1ccc([N+](=O)[O-])cc1,inconclusive: -38.1%
18,CCOC(=O)C1CCN(Cc2ccc(C(=O)OC)cc2)CC1,inactive: -10.5%
19,O=C(Nc1cccc(S(=O)(=O)N2CCCCC2)c1)[C@@H]1CCCN1S(=O)(=O)c1ccccc1C(F)(F)F,inconclusive: -32.9%
20,CCNC(=O)C1(C)CCCN(C(=O)c2cc(-c3cccs3)oc2C)C1 (stereo not given),inconclusive: -37.5%
21,CCOc1ccccc1OCCCCCc1c(C)n[nH]c1C,inconclusive: -36.9%
22,Cn1cc(CCNCc2cn[nH]c2-c2ccc(-c3ccccc3)cc2)cn1,inactive: -21.8%

row,Compound,activity change
1,COc1ccc(NC(=O)c2cc([N+](=O)[O-])ccc2N2CCCCC2)cc1OC,inactive: 12.3%
2,CNC(=O)c1cc(Nc2nnc(C)c3ccccc23)ccc1OC,inactive: 81.3%
3,COc1ccc(C2(c3ccc(OC)cc3)NC(=O)N(CC(=O)Nc3ccccc3C)C2=O)cc1,inconclusive: -34.3%
4,Fc1ccccc1N1CCN(c2nnnn2-c2ccccc2)CC1,inconclusive: -37.5%
5,COc1ccc(-c2coc3c(C(=O)NCc4ccc(F)c(F)c4)cccc23)c(C)c1,inconclusive: -38.8%
6,COc1cc2nc(COc3ccccc3[N+](=O)[O-])oc(=O)c2cc1OC,inactive: 34.2%
7,COc1ccc(/C=N/Nc2nc(N3CCCC3)nc(N3CCCC3)n2)cc1O,inactive: 10.1%
8,COC(=O)c1ccc(/C=C/C(=O)c2ccc(OC)cc2)cc1,inconclusive: -38.8%
9,COc1ccc(NC(=O)Cc2nnc(SCC(=O)Nc3ccccc3)n2C)cc1,inactive: 17.5%
10,COc1nnc(-c2ccc(N3CCOCC3)c(NC(=O)c3ccccc3)c2)c2ccccc12,inconclusive: -35.3%
11,COCc1[nH]nc2c1C(c1c(F)cccc1Cl)C(C#N)=C(N)O2 (stereo not given),inconclusive: -33.7%
12,O=C(NCc1ccc(F)cc1)c1ccc2c(=O)n3c(nc2c1)CCCCC3,inactive: -6.49%
13,Cc1cccc(NC(=O)CN(CC2CCCO2)C(=O)c2oc3ccccc3c2C)c1C (stereo not given),inactive: 12.2%
14,N#CC1(C#N)CC(C=O)=C(N)C1(C#N)CC(=O)C12CC3CC(CC(C3)C1)C2 (stereo not given),active: -102%
15,Cn1cccc1C(=O)OCC(=O)N1CCc2ccccc2C1,inconclusive: -38.2%
16,O=C(Nc1ccc(Cl)cc1)Nc1cccc2nsnc12,inconclusive: -32.3%
17,N#CCC(=O)Nc1ccc(C(=O)OCC(=O)NC(=O)NCc2ccco2)cc1,inactive: -8.5%
18,O=C(c1ccccc1)c1ccc(C(=O)N2CCN(c3ccccc3Cl)CC2)cc1,inconclusive: -35.8%
19,CN1CCN(CC(C)(C)NS(=O)(=O)c2ccc(Cl)cc2)CC1,inactive: -5.02%
20,O=S1(=O)CC=C(CSC(=S)NC2CCS(=O)(=O)C2)C1 (stereo not given),active: -97.4%
21,COc1ccc(-c2ccc(C(=O)Nc3ccc4c(c3)OCO4)c3occc23)c(C)c1,inconclusive: -34.7%
22,COc1ccc(OC)c(NC(=O)c2ccc(CSc3ncccn3)cc2)c1,inconclusive: -38.7%

row,Compound,activity change
1,O=C1C2C3C=CC(CO)(O3)C2C(=O)N1c1ccccc1-c1ccccc1 (stereo not given),active: -82.5%
2,Cc1cc(Nc2nc3ccccc3nc2Cl)n(-c2ccccc2)n1,inconclusive: -36.7%
3,COc1ccc(C2c3cc(OC)c(OC)cc3CCN2S(C)(=O)=O)cc1OC (stereo not given),inactive: 38%
4,COc1ccc(NC(=O)Nc2nc(C)cc(C)n2)c(OC)c1,inconclusive: -36.6%
5,Cc1ccc(S(=O)(=O)c2cn(C)c3cc(N4CCN(C)CC4)c(F)cc3c2=O)c(C)c1,active: -93.2%
6,Nc1ccccc1CCc1ccccc1N,inconclusive: -32.1%
7,CCCCn1nnnc1SCC(=O)c1cc(Cl)ccc1OC,active: -57.3%
8,Cc1ccc(C(=O)Nc2cccc(S(=O)(=O)N3CCCCC3)c2)cc1[N+](=O)[O-],inconclusive: -37.2%
9,N#Cc1ccccc1NC(=O)CN1CCN(c2ccccn2)CC1,inactive: 9.39%
10,CC[C@]12c3[nH]c4ccc(OC)cc4c3CCN1C(=O)C(CC(=O)NCC13CC4CC(CC(C4)C1)C3)C[C@@H]2C(=O)N1CCN(C(=O)c2ccco2)CC1 (stereo not given in full),active: -54.8%
11,COc1ccc2[nH]c(=O)c(C(=O)O)cc2c1,inactive: 9.85%
12,COc1ccc(C2(O)CCN(CC(=O)Nc3nc(-c4ccccc4)cs3)CC2)cc1,active: -98.3%
13,COc1cc(NS(=O)(=O)c2ccc(C)c(C)c2)c(OC)cc1Cl,inactive: 7.79%
14,O=C(C[n+]1cccc(NC(=O)c2ccccc2)c1)c1ccc(NC(=O)c2ccccc2)cc1,inconclusive: -32.3%
15,CCOc1ccc(C(=O)NC2CCN(S(=O)(=O)c3ccccc3)CC2)cc1,inactive: -10.9%
16,CCc1ccc(Nc2ccc(C(=O)O)cc2[N+](=O)[O-])cc1,inactive: 21.9%
17,O=C(NCCCN1CCCC1=O)c1cc(COc2ccc(F)cc2F)on1,inconclusive: -42.6%
18,CN(Cc1ccc(Cl)cc1)C(=O)CCl,active: -103%
19,CCCCCNC(=O)N[C@H](C(=O)O)C(C)C,inactive: 12.3%
